Laboratory results from patent US20210163404A1, “NOVEL UREA COMPOUNDS AND BIOISOSTERES THEREOF AND THEIR USE FOR TREATING INFLAMMATION AND INFLAMMATION-RELATED PATHOLOGIES” (UNIVERSITÉ LAVAL, priority 2017, published 2021).
The name of at least one read-out is uncertain.

tested on: IL-6; assay: IL-6 expression in HaCaT cells stimulated with IL-17A and TNFα (ELISA); assay type: cell-based, human; conditions: Table 5; HaCaT stimulated with IL-17α and TNFα, 6 h
Source text: The effect of compounds 3a-b, 4a-e, 5a-e and 6a-e on the expression of IL-6 was subsequently assessed using the HaCaT spontaneously transformed aneuploid immortal keratinocyte cell line, stimulated by the addition of IL-17A and TNFα in the culture medium (Table 1). Curcumin and ibuprofen were used as known IL-6 expression inhibitors. DMSO was used for solubilizing the drugs. […] Indeed, the inhibitory effect of these molecules was at least equivalent to that of curcumin [27] and ibuprofen, both recognized as anti-inflammatory drugs. The inhibitory effect of the substituted phenyl cycloalkylureas in accordance with an embodiment of the present disclosure on proinflammatory cytokines was also found at the mRNA level. Indeed, the mRNAs of the cytokines IL-6 and TNF-α as well as the mRNA of the chemokine IL-8 were lowered in TNF-α/IL-17A-stimulated HaCaT cells. Similar results were obtained in THP-1 cells stimulated with LPS where treatments with CHEU and 4e diminished the mRNA levels of the cytokines IL-1B, IL-6 and TNF-α in addition to the mRNA levels of the chemokine IL-8. It is surmised that the anti-inflammatory mechanism of action of the compounds of the present disclosure is likely mediated, at least in part, by modulating the phosphorylation state of the MAP kinase p38. […] Addition of a compound in accordance with an embodiment of the present disclosure, prior to stimulation with the aforementioned cytokines, decreases the level of p-p38 at 30-60 minutes post-stimulation. This diminution in p-p38 levels destabilizes the mRNAs of pro-inflammatory cytokines, non-limiting examples of which include TNF-α and IL-6. Moreover, it is surmised that the effect of the compounds of the present disclosure on p-p38 is potentially mediated by the activation of the phosphatase named DUSP1.
HaCaT cells (1×10^5) were suspended in DMEM culture media (500 μL) and incubated for 24 h in 24-well microtiter plates at 37° C. in a moisture-saturated atmosphere containing 5% CO2. Compounds were solubilized in DMSO and diluted in fresh DMEM. The compound (500 μL) was then added to the cell medium to obtain a final concentration of […] and the cells incubated over a period of 1 hour. In the meantime, IL-17α (200 ng/mL) and TNFα (20 ng/mL) (PeproTech, Rocky Hill, N.J.) were added to the drug solution in DMEM. Following the initial incubation of the cells, the culture medium was aspirated from each well and the IL-17α+ TNFα+ compound solution was added to each well for incubation (6 hours). The culture media was then removed and transferred to a clean tube (1.5 mL) at −80° C. until the ELISA test was performed. The presence of IL-6 in the cell media was determined using an IL-6 human Duoset ELISA kit (Fisher Scientific, Ottawa, On.) according to the manufacturer's instructions. Standards and samples were prepared and assessed in duplicate. Two separate replicates were performed for each sample. The absorbance was measured at 450 nm and 540 nm using a TECAN infinite M1000 plate reader.

| Structure (SMILES) | Reduction IL-6 (%) |
| --- | --- |
| CC(C)(C)NC(=O)Nc1ccc(C2CCCCC2)cc1 [Compound 14] | 28.5 |
| CC(C)NC(=O)Nc1cccc(C2CCCCC2)c1 [Compound 16] | 26.1 |
| CC(C)(C)NC(=O)Nc1cccc(C2CCCCC2)c1 [Compound 17] | 52.4 |
| C[C@@H]1C[C@H]2[C@@H]3CCC4=CC(=O)C=C[C@]4(C)[C@@]3(F)[C@@H](O)C[C@]2(C)[C@@]1(O)C(=O)CO [Dexamethasone, reference compound] | 68.3 |
| CC(C)(C)NC(=O)Nc1ccc(I)cc1 [Compound 2] | −14.6 |
| CCCNC(=O)Nc1cccc(C2CCCCC2)c1 [Compound 18] | 70.4 |
| CC(C)NC(=O)Nc1cccc(I)c1 [Compound 4] | 1.7 |
| CCCNC(=O)Nc1cccc(I)c1 [Compound 6] | 57.2 |
| CC(C)Cc1ccc(C(C)C(=O)O)cc1 (stereo not shown) [Ibuprofen, reference compound] | 62.1 |
| CC(C)(C)NC(=O)Nc1cccc(I)c1 [Compound 5] | 54.5 |
| CC(C)(C)NC(=O)Nc1ccc(C(C)(C)C)cc1 [Compound 8] | −10.6 |
| CC(C)NC(=O)Nc1ccc(C(C)(C)C)cc1 [Compound 7] | 13.6 |
| CCCNC(=O)Nc1ccc(C2CCCCC2)cc1 [Compound 15] | 33.4 |
| CCCNC(=O)Nc1ccc(C(C)(C)C)cc1 [Compound 9] | 20.0 |
| CC(C)NC(=O)Nc1ccc(I)cc1 [Compound 1] | −6.9 |
| CC(C)NC(=O)Nc1cccc(C(C)(C)C)c1 [Compound 10] | 35.3 |
| CC(C)NC(=O)Nc1ccc(C2CCCCC2)cc1 [Compound 13] | 51.3 |

same assay, conditions: Table 6; HaCaT stimulated with IL-17α and TNFα, 6 h

| Structure (SMILES) | Reduction IL-6 (%) |
| --- | --- |
| O=C(Nc1cccc(I)c1)NC1CC1 [Compound 36, 1-Cyclopropyl-3-(3-iodophenyl)urea] | 67.8 |
| CC(C)(C)c1ccc(NC(=O)NC2CCCC2)cc1 [Compound 31, 1-(4-(t-Butyl)phenyl)-3-cyclopentylurea] | 28.4 |
| O=C(Nc1ccc(I)cc1)NC1CC1 [Compound 20, 1-Cyclopropyl-3-(4-iodophenyl)urea] | 73.1 |
| O=C(NCC1CCC1)Nc1cccc(C2CCCCC2)c1 [Compound 68] | 44.9 |
| O=C(Nc1ccc(C2CCCCC2)cc1)NC1CC1 [Compound 54, 1-(4-Cyclohexylphenyl)-3-cyclopropylurea] | 83.6 |
| O=C(NCC1CCC1)Nc1cccc(I)c1 [Compound 39, 1-(Cyclobutylmethyl)-3-(3-iodophenyl)urea] | 49.3 |
| CC(C)(C)c1ccc(NC(=O)NC2CC2)cc1 [Compound 27, 1-(4-(t-Butyl)phenyl)-3-cyclopropylurea] | 48.4 |
| O=C(NCC1CCC1)Nc1ccc(I)cc1 [Compound 23, 1-(Cyclobutylmethyl)-3-(4-iodophenyl)urea] | 81.0 |
| O=C(Nc1cccc(C2CCCCC2)c1)NC1CCCC1 [Compound 69] | 41.3 |
| CC(C)Cc1ccc(C(C)C(=O)O)cc1 (stereo not shown) [Ibuprofen, reference compound] | 32.6 |
| O=C(Nc1ccc(C2CCCCC2)cc1)NC1CCCC1 [Compound 58, 1-(4-Cyclohexylphenyl)-3-cyclopentylurea] | 71.7 |
| O=C(Nc1cccc(C2CCCCC2)c1)NC1CC1 [Compound 67] | 44.1 |
| CC(C)(C)c1cccc(NC(=O)NC2CCCC2)c1 [Compound 48, 1-(3-(t-Butyl)phenyl)-3-cyclopentylurea] | 58.1 |
| CC(C)(C)c1cccc(NC(=O)NC2CC2)c1 [Compound 44] | 71.7 |
| COc1cc(/C=C/C(=O)CC(=O)/C=C/c2ccc(O)c(OC)c2)ccc1O [Curcumin, reference compound] | 64.6 |
| O=C(Nc1ccc(I)cc1)NC1CCCC1 [Compound 24, 1-Cyclopentyl-3-(4-iodophenyl)urea] | 63.4 |
| CCNC(=O)Nc1cccc(C2CCCCC2)c1 [Compound 66] | 39.7 |
| CC(C)(C)c1cccc(NC(=O)NCC2CCC2)c1 [Compound 47, 1-(3-(t-Butyl)phenyl)-3-(cyclobutylmethyl)urea] | 73.3 |
| CC(C)(C)c1ccc(NC(=O)NCC2CCC2)cc1 [Compound 30, 1-(4-(t-Butyl)phenyl)-3-(cyclobutylmethyl)urea] | 60.3 |

same assay, conditions: Table 7; HaCaT stimulated with IL-17α and TNFα, 6 h

| Structure (SMILES) | Reduction IL-6 (%) |
| --- | --- |
| O=c1c(Nc2ccc(C3CCCCC3)cc2)c(NC2CC2)c1=O [Compound 76] | −18.7 |
| C[C@@H]1C[C@H]2[C@@H]3CCC4=CC(=O)C=C[C@]4(C)[C@@]3(F)[C@@H](O)C[C@]2(C)[C@@]1(O)C(=O)CO [Dexamethasone, reference compound] | 68.3 |
| O=c1c(NCC2CCC2)c(Nc2ccc(C3CCCCC3)cc2)c1=O [Compound 77] | −19.7 |
| CC(C)(C)c1cccc(Nc2c(NC3CCCC3)c(=O)c2=O)c1 [Compound 87] | −58.6 |
| CC(C)(C)c1ccc(Nc2c(NC3CCCC3)c(=O)c2=O)cc1 [Compound 84] | 12.1 |
| CC(C)Cc1ccc(C(C)C(=O)O)cc1 (stereo not shown) [Ibuprofen, reference compound] | 62.1 |
| O=c1c(Nc2ccc(I)cc2)c(NC2CC2)c1=O [Compound 70] | 0.9 |
| O=c1c(Nc2cccc(C3CCCCC3)c2)c(NC2CC2)c1=O [Compound 79] | 6.7 |
| CC(C)(C)c1cccc(Nc2c(NC3CC3)c(=O)c2=O)c1 [Compound 85] | 41.7 |
| O=c1c(NCC2CCC2)c(Nc2cccc(I)c2)c1=O [Compound 74] | −54.2 |
| O=c1c(Nc2ccc(I)cc2)c(NC2CCCC2)c1=O [Compound 72] | 50.0 |
| O=c1c(NCC2CCC2)c(Nc2ccc(I)cc2)c1=O [Compound 71] | −1.4 |
| O=c1c(Nc2cccc(I)c2)c(NC2CC2)c1=O [Compound 73] | −3.2 |
| CC(C)(C)c1ccc(Nc2c(NCC3CCC3)c(=O)c2=O)cc1 [Compound 83] | −9.5 |
| O=c1c(Nc2ccc(C3CCCCC3)cc2)c(NC2CCCC2)c1=O [Compound 78] | −14.3 |
| CC(C)(C)c1cccc(Nc2c(NCC3CCC3)c(=O)c2=O)c1 [Compound 86] | −103.7 |
| O=c1c(NCC2CCC2)c(Nc2cccc(C3CCCCC3)c2)c1=O [Compound 80] | 11.8 |

same assay, conditions: Table 8; HaCaT stimulated with IL-17α and TNFα, 6 h

| Structure (SMILES) | Reduction IL-6 (%) |
| --- | --- |
| S=C(NCC1CCC1)Nc1ccc(I)cc1 [Compound 92] | 9.6 |
| CC(C)(C)c1ccc(NC(=S)NCC2CCC2)cc1 [Compound 96] | 6.8 |
| S=C(Nc1cccc(I)c1)NC1CC1 [Compound 103] | 9.6 |
| S=C(NCC1CCC1)Nc1cccc(C2CCCCC2)c1 [Compound 106] | 48.4 |
| CC(C)(C)c1cccc(NC(=S)NCC2CCC2)c1 [Compound 90] | −27.9 |
| CC(C)Cc1ccc(C(C)C(=O)O)cc1 (stereo not shown) [Ibuprofen, reference compound] | 51.0 |
| S=C(NCC1CCC1)Nc1cccc(I)c1 [Compound 99] | 49.2 |
| S=C(Nc1ccc(C2CCCCC2)cc1)NC1CCCC1 [Compound 89] | 4.8 |
| S=C(Nc1ccc(I)cc1)NC1CC1 [Compound 101] | 23.8 |
| CCNC(=S)Nc1ccc(C(C)(C)C)cc1 [Compound 94] | −18.2 |
| S=C(Nc1cccc(C2CCCCC2)c1)NC1CCCC1 [Compound 107] | 42.9 |
| CC(C)(C)c1ccc(NC(=S)NC2CC2)cc1 [Compound 95] | −28.5 |
| CCNC(=S)Nc1cccc(C2CCCCC2)c1 [Compound 104] | 15.2 |
| S=C(Nc1cccc(C2CCCCC2)c1)NC1CC1 [Compound 105] | 44.1 |
| COc1cc(/C=C/C(=O)CC(=O)/C=C/c2ccc(O)c(OC)c2)ccc1O [Curcumin, reference compound] | 32.3 |
| S=C(Nc1ccc(C2CCCCC2)cc1)NC1CC1 [Compound 93] | 22.1 |
| CC(C)(C)c1cccc(NC(=S)NC2CCCC2)c1 [Compound 91] | −12.0 |
| S=C(Nc1cccc(I)c1)NC1CCCC1 [Compound 98] | 36.8 |
| CC(C)(C)c1cccc(NC(=S)NC2CC2)c1 [Compound 100] | 46.5 |
| S=C(Nc1ccc(I)cc1)NC1CCCC1 [Compound 102] | 45.5 |
